Read counts are not given, so values of variants with three or more changes are uncertain.
B1: LINE1-mini (parent)
chain: GGCAGAGCUCAACACAGCGUGGCAAAGUGGCUGUGGCUAGACUGCC

Variants of: B1
Experiment: self-cleavage, relative activity (ratio to wild type); higher = more cleavage; in vitro, sequencing; the parent is a self-cleaving ribozyme

Variant | self-cleavage
G2C C8G G21U G22A C42G C46U | 0.66
G2C C10U C31A C46A | 0.01
G2C C3U C8U G30U G44A | 0.61
G2C C10U U34A U38C C46U | 0
G2C A12U U20A | 0.06
G2C C3G G7U C46G | 0.12
G2C A12G G17U U28G | 0.02
G2C C3U C37U C46A | 0.05
G2C C13U G21A A24U | 0.01
G2C G17C G19U U38C | 0.01
G2C C37G G40C | 0.01
G2C C8A G27A U28A G30C U43G | 0
G2C C3U C37U | 0.02
G2C A26U G27U C37G C42A | 0
G2C G17U G27A | 0.08
G2C C3U C10U G33U | 0.04
G2C A14U G44A | 0.04
G2C A26C A41U | 0.18
G2C C3G G22C G36A | 0.02
G2C C3U C15U A41C | 0.46
G2C C13G G29U G33A U34G U43C G44C | 0.01
G2C C15G C31A G36U | 0.02
G2C C15U G36A | 0.15
G2C G5U C8U C10G A14G | 0.01

Variant | self-cleavage
G2C G5C A11C G19U A25C G35C | 0
G2C C3U A14U G22C A39G | 0.03
G2C C18A A25U | 0.09
G2C G19A G27A G35U C37A | 0.71
G2C C23A A24C G40A | 0.02
G2C A24U A41U | 0.04
G2C A24C A26C G27C A39G | 0.16
G2C A16G G17C | 0.03
G2C C31G G36U | 0.24
G2C C31U G33U | 0.07
G2C C3A C8A G30C | 0.04
G2C C3G G21A G35C A41U C45U | 0.02
G2C C15A G17C C18U G21C G27U C42U C45U | 0.01
G2C C10A G17A G21U G36C | 0
G2C G17U C18G A26C | 0.07
G2C A14G C46A | 0.01
G2C C31U G36A C42A C46A | 0.15
G2C C3U U9G C10U A12C G29U | 0.06
G2C A26C G27U | 0
G2C C10A U43A G44C | 0
G2C A12U G27U | 0.01
G2C G5A C8A G17C U28C G33U A41G | 0.07
G2C A12C C23A | 0.04
G2C C18U A41C | 0.03

Variant | self-cleavage
G2C C3U C23U | 0.83
G2C C15A G19C G40U | 0.01
G2C G7C U38G | 0.01
G2C C8U C13A G36C | 0.01
G2C A26G G30C G35A A41G | 0.13
G2C G17A U38G | 0.07
G2C C23U A25C G27A G30C | 0.1
G2C C13U G21C C42A | 0.19
G2C G5A A12G G17U G27C U38G C46G | 0.06
G2C C3U C15G A26U | 0.02
G2C C15U A25C G35C C45A | 0.1
G2C C13U A25U U28A A41U | 0.02
G2C A14G G29U G30A | 0.03
G2C C3A C8U C10A C45G | 0.04
G2C G5A G17A C31U A41U C45G | 0.04
G2C C13G A16C A25C | 0.02
G2C G7U A14G U38A A41U | 0.06
G2C C23A G36A U43G | 0
G2C C3A A14C C15G G29U U32A | 0
G2C C13G A25U | 0.15
G2C C3G G5C C23G U34G | 0.05
G2C C15A A26C G30A C31G | 0.04
G2C C10U G29C G40C A41C U43A | 0.01
G2C G17C U20A G21C C23U A39U C42A | 0.02

Variant | self-cleavage
G2C A14U G35A G36U C46G | 0.09
G2C G5C G17A C42G G44U | 0.01
G2C A16G A25U | 0.23
G2C A12C G22C | 0.03
G2C G5U C31A | 0.05
G2C C3U C18G | 0.03
G2C G7C C46U | 0.1
G2C C3U A4G G19U | 0.1
G2C C10G A14U G30C C46A | 0
G2C C8A G21C G33A G40A | 0.09
G2C C13A C23U | 0.13
G2C C3U A24C G33U | 0.04
G2C C8A C15A C46A | 0.06
G2C C13G U20A | 0.01
G2C G7C U28G U32A | 0.1
G2C C13U U28C U38G | 0.01
G2C C3U G29C A41G | 0.02
G2C G5A G29U C37U | 0.06
G2C G19C C23U U28C U38G | 0.1
G2C C10U A14C A25C | 0.03
G2C A25C C31G | 0.06
G2C C3A A6G G40A | 0.03
G2C C18A U28C G33U U34C C42G C46U | 0.02
G2C C8A G17A G27C A39U | 0.06

Variant | self-cleavage
G2C C23G U34A | 0.05
G2C A26G G36C C46A | 0.04
G2C A12G G17A C18U U34A C37U | 0.02
G2C G5C A14G G19A G27C G29A C45G | 0.04
G2C A12G G33U | 0.07
G2C C23A G29U | 0.19
G2C C3U A4C G7A | 1.5
G2C A16U G19C G27U | 0.01
G2C A12C U38C C46U | 0.04
G2C C8A A12U G17A A26U G29U | 0.21
G2C C15A A16U A25U G27U U32G | 0.06
G2C G7U A11C C23G | 0.06
G2C A16C G29C G33C | 0.02
G2C C18U C42A | 0.18
G2C G19A C37U G44U C46A | 0.01
G2C C8G G17C | 0.26
G2C A14C C15G U43A | 0.01
G2C C10A C13U C15A C42A | 0
G2C G17A G44C C45U | 0.02
G2C A14C G33U U34C | 0.18
G2C G5U A12U | 0.02
G2C C13U A26G G29A C37A G44U | 0.03
G2C C13U G19U A24C C31A | 0.06
G2C C23U G29A | 0.2

Variant | self-cleavage
G2C C10A C13A G36C | 0.15
G2C G7A G35A | 0.24
G2C G17U C23U A25U G36U A39C | 0.02
G2C A12G G33C A41U C46G | 0.03
G2C C18A U32G | 0.03
G2C C18A C23U G27A | 0.01
G2C C15U G19A C31U | 0.02
G2C C3G G44U | 0.05
G2C C10U A11G A14G G30U U34G G36U | 0.01
G2C C3U G17U C46A | 0.04
G2C C18G C45U | 0.02
G2C C3G U9C C23A G29U C42U U43C C45A | 0.01
G2C C8G A41U C45U | 0.14
G2C C10A C15U G30C | 0.04
G2C G7A C8U C10A U28C C37U | 0.01
G2C A14U C15A G40A | 0.01
G2C G17U A41C | 0.08
G2C G7U G21C G33A | 0.05
G2C G7U C8U A41U | 0.18
G2C C3U A16U C18G C23U | 0.05
G2C A14U C15G A24C G29A | 0.02
G2C A12C C18G U34C | 0.01
G2C C23U A24U C45G C46G | 0.2
G2C C3A C18A A41G | 0.05

Variant | self-cleavage
G2C G7A A16C C18G G33U C45A | 0
G2C C10A G21C | 0.03
G2C G7A U9C U32A C37U | 0.02
G2C C3A A16U C18U G36A | 0.1
G2C A14G G17A C31A G36U | 0.04
G2C A12U C15U G36A A39U G40U C42U | 0.08
G2C C13G C23A G30A G35U U38A G40A | 0.09
G2C A16G C18U U43A G44U C45U | 0
G2C C18U G29U G36U C46U | 0.52
G2C G5C A16G | 0.03
G2C G17C A25U G27C G30C | 0.03
G2C A25U U32G | 0.06
G2C G5U A16C | 0.01
G2C A39U G40U | 0.05
G2C A24G U28A G35U G36C | 0.08
G2C A16C G21U G30U | 0.1
G2C G5A A26G | 0.03
G2C G7A C23G G30C | 0.34
G2C C3U C13A A41G | 0.12
G2C G5C G33A C45A | 0.03
G2C A25G G33A C37A G40U | 0.04
G2C G5A G40A | 0.09
G2C C3U G7U G22U G27A | 0.22
